Data on 47 sequences can be found in PMC5892938.

The other results are listed elsewhere or left out. At the low end of the ranking the order means little.

In the assay the target is GST-SBP-SLBP (stem-loop binding protein) (UniProt Q14493). The experiment in a line: targeted RNA Bind-n-Seq.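 Note: DESeq read counts versus GST-SBP nonspecific binding control pulldown.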 As to conditions: RBNS binding buffer: 25 mM Tris pH 7.5, 150 mM KCl, 3 mM MgCl2, 0.1% Tween, 0.5 mg/mL BSA, 1 mM DTT; 27 nM protein, 750 pM RNA pool; temperature not stated; high values mean tight binding.
Take “GGUCACGUCUCAAUCAACUCAACUUCCAGGGAAAUCCCUGGUAAAUUCAACAGCUCGCAGUCAAG”: the binding signal (log2 fold change) was -0.226. In the case of “GGUCACGUCUCAAUCAACUCAUCUCCCAGGGAAAUCCCUGGCAAAUUCAACAGCUCGCAGUCAAG” it was -0.106; in that of “GGUCACGUCUCAAUCAACUCUUCCCCAGGAGUUUCCUCCUGCAUAUUCAACAGCUCGCAGUCAAG”, 0.014; in that of “GGUCACGUCUCAAUCAACUCCUCGGAGGGGGGGAAAACCCCUUUACCCUCAUCAUCAACAGCUCGCAGUCAAG”, -0.0537. As to “GGUCACGUCUCAAUCAACUCACUAGAGGGGGGGAAAACCCCUUUGCCCUCACUAUCAACAGCUCGCAGUCAAG”, the binding signal (log2 fold change) was -0.0982. As for “GGUCACGUCUCAAUCAACUCAUCUUCAGGAGUUUUCUCCUGCAAUUUCAACAGCUCGCAGUCAAG”, the binding signal (log2 fold change) amounted to 0.141.

Regarding “GGUCACGUCUCAAUCAACUCUACUUCCAGGGAAAUCCCUGGCUUAUUCAACAGCUCGCAGUCAAG”, the binding signal (log2 fold change) is -0.012.

Regarding “GGUCACGUCUCAAUCAACUCCUUCGAGGGGGGGAAAACCCCUUUACCCUCAUUUUCAACAGCUCGCAGUCAAG”, the binding signal (log2 fold change) is -0.0861. For “GGUCACGUCUCAAUCAACUCAUCCUCAGGAGUUUGCUCCUGCAAUUUCAACAGCUCGCAGUCAAG” the value was 0.101. For “GGUCACGUCUCAAUCAACUCCAUAGAGGGGGGGAAAACCCCUUUGCCCUCAUUUUCAACAGCUCGCAGUCAAG”, the binding signal (log2 fold change) is 0.381.

On to “GGUCACGUCUCAAUCAACUCAUUUCCCAGGGAAAACCCUGGUAAUCUCAACAGCUCGCAGUCAAG”, for which the binding signal (log2 fold change) came out at 0.0456. In the case of “GGUCACGUCUCAAUCAACUCUUUUUCCAGGGAAAGCCCUGGCAUGUUCAACAGCUCGCAGUCAAG” it was 0.337.

Regarding “GGUCACGUCUCAAUCAACUCAAUUUCCAGGGAAAGCCCUGGCUUACUCAACAGCUCGCAGUCAAG”, the binding signal (log2 fold change) is -0.0842.

Turning to “GGUCACGUCUCAAUCAACUCAUCUUCCAGGGAAAGCCCUGGCAAUUUCAACAGCUCGCAGUCAAG”, the binding signal (log2 fold change) was 0.0814. In the case of “GGUCACGUCUCAAUCAACUCAUUUUCAGGAGUUUGCUCCUGUAUUCUCAACAGCUCGCAGUCAAG” it was 0.0961; in that of “GGUCACGUCUCAAUCAACUCUAUGGAGGGGGGGAAAACCCCUUUACCCUCAACUUCAACAGCUCGCAGUCAAG”, -0.115; in that of “GGUCACGUCUCAAUCAACUCUCUAGAGGGGGGGAAAACCCCUUUGCCCUCACACUCAACAGCUCGCAGUCAAG”, 0.353. For the sequence “GGUCACGUCUCAAUCAACUCACUAGAGGGGGGGAAAACCCCUUUGCCCUCACAUUCAACAGCUCGCAGUCAAG”, the binding signal (log2 fold change) was -0.266. For “GGUCACGUCUCAAUCAACUCCAAAGAGGGGGGGAAAACCCCUUUACCCUCAACAUCAACAGCUCGCAGUCAAG” the value was -0.0929; for “GGUCACGUCUCAAUCAACUCUUUCCCAGGAGUUUUCUCCUGCAUACUCAACAGCUCGCAGUCAAG”, 0.127; for “GGUCACGUCUCAAUCAACUCAUCUUCAGGAGUUUGCUCCUGUAAUCUCAACAGCUCGCAGUCAAG”, -0.0258. For “GGUCACGUCUCAAUCAACUCACACGAGGGGGGGAAAACCCCUUUGCCCUCAUAAUCAACAGCUCGCAGUCAAG” the value was 0.14. In the case of “GGUCACGUCUCAAUCAACUCUUAAGAGGGGGGGAAAACCCCUUUGCCCUCACUAUCAACAGCUCGCAGUCAAG” it was -0.0925; in that of “GGUCACGUCUCAAUCAACUCAUUCCCAGGAGUUUGCUCCUGUAAUCUCAACAGCUCGCAGUCAAG”, 0.107. In the case of “GGUCACGUCUCAAUCAACUCAUCUUCCAGGGAAACCCCUGGCAUUUUCAACAGCUCGCAGUCAAG”, the binding signal (log2 fold change) is -0.0946. For “GGUCACGUCUCAAUCAACUCUUUCUCCAGGGAAACCCCUGGUUAUUUCAACAGCUCGCAGUCAAG”, the binding signal (log2 fold change) was determined as 0.0475. Consider “GGUCACGUCUCAAUCAACUCAUCAGAGGGGGGGAAAACCCCUUUACCCUCAAACUCAACAGCUCGCAGUCAAG”, for which the binding signal (log2 fold change) is -0.0656.

With “GGUCACGUCUCAAUCAACUCAUCGUCAGGAGUUUCCUCCUGUAUAUUCAACAGCUCGCAGUCAAG”, the binding signal (log2 fold change) was 0.186.

Turning to “GGUCACGUCUCAAUCAACUCUACUUCAGGAGUUUUCUCCUGCUAUGUCAACAGCUCGCAGUCAAG”, the binding signal (log2 fold change) is -0.0671.

Take “GGUCACGUCUCAAUCAACUCAUCAGAGGGGGGGAAAACCCCUUUACCCUCAUAAUCAACAGCUCGCAGUCAAG”: the binding signal (log2 fold change) is -0.304. In the case of “GGUCACGUCUCAAUCAACUCCUUAGAGGGGGGGAAAACCCCUUUACCCUCCGCAUCAACAGCUCGCAGUCAAG” it was -0.461; in that of “GGUCACGUCUCAAUCAACUCAAUCUCAGGAGUUUACUCCUGUUAUCUCAACAGCUCGCAGUCAAG”, -0.107; in that of “GGUCACGUCUCAAUCAACUCUUCGUCCAGGGAAAUCCCUGGUUAAUUCAACAGCUCGCAGUCAAG”, -0.25. In the case of “GGUCACGUCUCAAUCAACUCAGUCCCCAGGGAAAACCCUGGUAUUUUCAACAGCUCGCAGUCAAG” it was -0.0907. For “GGUCACGUCUCAAUCAACUCUCUCGAGGGGGGGAAAACCCCUUUACCCUCAUUAUCAACAGCUCGCAGUCAAG” the value was -0.0145; for “GGUCACGUCUCAAUCAACUCUUCGUCCAGGGAAAUCCCUGGCAUAUUCAACAGCUCGCAGUCAAG”, -0.0664. “GGUCACGUCUCAAUCAACUCCUACGAGGGGGGGAAAACCCCUUUACCCUCCACAUCAACAGCUCGCAGUCAAG”: the binding signal (log2 fold change) turned out to be 0.0795.

On to “GGUCACGUCUCAAUCAACUCUAUGUCCAGGGAAACCCCUGGCUUUUUCAACAGCUCGCAGUCAAG”, for which the binding signal (log2 fold change) is -0.124. For “GGUCACGUCUCAAUCAACUCUAUUCCAGGAGUUUCCUCCUGCAUUCUCAACAGCUCGCAGUCAAG” the value was 0.101.

Take “GGUCACGUCUCAAUCAACUCAGUUCCAGGAGUUUGCUCCUGCAUUUUCAACAGCUCGCAGUCAAG”: the binding signal (log2 fold change) is 0.058. For “GGUCACGUCUCAAUCAACUCAUCCCCCAGGGAAAUCCCUGGCUAUUUCAACAGCUCGCAGUCAAG” the value was -0.0229; for “GGUCACGUCUCAAUCAACUCAAUUCCAGGAGUUUACUCCUGUAUAUUCAACAGCUCGCAGUCAAG”, -0.0755; for “GGUCACGUCUCAAUCAACUCUUUCUCCAGGGAAACCCCUGGCAUAUUCAACAGCUCGCAGUCAAG”, -0.123. For “GGUCACGUCUCAAUCAACUCCUUAGAGGGGGGGAAAACCCCUUUACCCUCACCAUCAACAGCUCGCAGUCAAG”, the binding signal (log2 fold change) is -0.3. In the case of “GGUCACGUCUCAAUCAACUCUUAAGAGGGGGGGAAAACCCCUUUGCCCUCAACAUCAACAGCUCGCAGUCAAG” it was 0.0647; in that of “GGUCACGUCUCAAUCAACUCUACUCCAGGAGUUUACUCCUGUUAAUUCAACAGCUCGCAGUCAAG”, 0.281. For “GGUCACGUCUCAAUCAACUCUUCUCCAGGAGUUUCCUCCUGCAUACUCAACAGCUCGCAGUCAAG” the value was 0.115.
